The other results are listed elsewhere or left out.
Tests used:
Test in all cases: glycan array binding signal (z-score within array); higher = stronger binding
Conditions in all cases: glycan notation: IUPAC condensed, linker removed; mutation: R343A
[1] = target: Fuc(a1-2)[GalNAc(a1-3)]Gal(b1-4)[Fuc(a1-3)]GlcNAc
Outline: (§1)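 Negative Z-scores can be read as non-binding. The Z-score is calculated within each array and then averaged across arrays of one protein sequence at different concentrations or buffers and across linkers. Arrays, 3228 in all, were curated from the Consortium for Functional Glycomics database and kept only where the protein sequence was available.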

[2] = target: Fuc(a1-2)[GalNAc(a1-4)]Gal(b1-4)GlcNAc
Outline: as §1

[3] = target: Fuc(a1-2)[GalNAc(b1-3)]Gal
Outline: as §1

Fuc(a1-3)GlcNAc = target: Fuc(a1-3)GlcNAc
Outline: as §1

[4] = target: Fuc(a1-3)[Gal(b1-4)]Glc6S
Outline: as §1

[5] = target: Fuc(a1-3)[Gal(b1-4)]GlcNAc
Outline: as §1

[6] = target: Fuc(a1-3)[Gal(b1-4)]GlcNAc(b1-2)Man(a1-3)[Fuc(a1-3)[Gal(b1-4)]GlcNAc(b1-2)Man(a1-6)]Man(b1-4)GlcNAc(b1-4)GlcNAc
Outline: as §1

[7] = target: Fuc(a1-3)[Gal(b1-4)]GlcNAc(b1-2)Man(a1-6)[Gal(b1-4)GlcNAc(b1-2)Man(a1-3)]Man(b1-4)GlcNAc(b1-4)GlcNAc
Outline: as §1

[8] = target: Fuc(a1-3)[Gal(b1-4)]GlcNAc(b1-3)Gal(b1-3)[Fuc(a1-4)]GlcNAc
Outline: as §1

[9] = target: Fuc(a1-3)[Gal(b1-4)]GlcNAc(b1-4)Gal(b1-4)[Fuc(a1-3)]GlcNAc
Outline: as §1

[10] = target: Fuc(a1-3)[Gal(b1-4)]GlcNAc(b1-4)Gal(b1-4)[Fuc(a1-3)]GlcNAc(b1-4)Gal(b1-4)[Fuc(a1-3)]GlcNAc
Outline: as §1

[11] = target: Fuc(a1-3)[Gal(b1-4)]GlcNAc6S
Outline: as §1

[12] = target: Fuc(a1-3)[Gal3S(b1-4)]Glc6S
Outline: as §1

[13] = target: Fuc(a1-3)[Gal3S(b1-4)]GlcNAc
Outline: as §1

[14] = target: Fuc(a1-3)[Gal3S(b1-4)]GlcNAc6S
Outline: as §1

[15] = target: Fuc(a1-3)[GalNAc(b1-4)]GlcNAc
Outline: as §1

Fuc(a1-4)GlcNAc = target: Fuc(a1-4)GlcNAc
Outline: as §1

Fuc(b1-3)GlcNAc = target: Fuc(b1-3)GlcNAc
Outline: as §1

Gal(a1-2)Gal = target: Gal(a1-2)Gal
Outline: as §1

Gal(a1-3)Gal = target: Gal(a1-3)Gal
Outline: as §1

Gal(a1-3)Gal(b1-3)GlcNAc = target: Gal(a1-3)Gal(b1-3)GlcNAc
Outline: as §1

Gal(a1-3)Gal(b1-4)Glc = target: Gal(a1-3)Gal(b1-4)Glc
Outline: as §1

Gal(a1-3)Gal(b1-4)GlcNAc = target: Gal(a1-3)Gal(b1-4)GlcNAc
Outline: as §1

[16] = target: Gal(a1-3)Gal(b1-4)[Fuc(a1-3)]GlcNAc
Outline: as §1

Gal(a1-3)GalNAc = target: Gal(a1-3)GalNAc
Outline: as §1

[17] = target: Gal(a1-3)[Gal(a1-4)]Gal(b1-4)GlcNAc
Outline: as §1

Gal(a1-4)Gal(b1-4)Glc = target: Gal(a1-4)Gal(b1-4)Glc
Outline: as §1

Gal(a1-4)Gal(b1-4)GlcNAc = target: Gal(a1-4)Gal(b1-4)GlcNAc
Outline: as §1

Gal(a1-4)GlcNAc = target: Gal(a1-4)GlcNAc
Outline: as §1

Gal(a1-6)Glc = target: Gal(a1-6)Glc
Outline: as §1

Gal(b1-2)Gal = target: Gal(b1-2)Gal
Outline: as §1

Gal(b1-3)Gal = target: Gal(b1-3)Gal
Outline: as §1

Gal(b1-3)Gal(b1-4)GlcNAc = target: Gal(b1-3)Gal(b1-4)GlcNAc
Outline: as §1

Gal(b1-3)GalNAc = target: Gal(b1-3)GalNAc
Outline: as §1

[18] = target: Gal(b1-3)GalNAc(b1-3)Gal(a1-4)Gal(b1-4)Glc
Outline: as §1

[19] = target: Gal(b1-3)GalNAc(b1-4)Gal(b1-4)Glc
Outline: as §1

[20] = target: Gal(b1-3)GalNAc(b1-4)[Neu5Ac(a2-3)]Gal(b1-4)Glc
Outline: as §1

B1: Surfactant Protein D (Human); Neck + Carbohydrate Recognition Domain (NCRD) (Homo sapiens) (protein)
chain: MLLFLLSALVLLTQPLGYLEAEMKTYSHRTMPSACTLVMCSSVESGLPGRDRDGREGPRGEKGDPGLPGAAGQAGMPGQAGPVGPKGDNGSVGEPGPKGDTGPSGPPGPPGVPGPAGREGALGKQGNIGPQGKPGPKGEAGPKGEVGAPGMQGSAGARGLAGPKGERGVPGERGVPGNTGAAGSAGAMGPQGSPGARGPPGLKGDKGIPGDKGAKGESGLPDVASLRQQVEALQGQVQHLQAAFSQYKKVELFPNGQSVGEKIFKTAQFVKPFTEAQLLCTQAGGQLASPRSAAENAALQQLVVAKNEAAFLSMTDSKTEGKFTYPTGESLVYSNWAPGEPNDDGGSEDCVEIFTNGKWNDAACGEKRLVVCEF
[1]
  glycan array binding signal (z-score): -0.132
[2]
  glycan array binding signal (z-score): -0.356
[3]
  glycan array binding signal (z-score): -0.204
Fuc(a1-3)GlcNAc
  glycan array binding signal (z-score): -0.251
[4]
  glycan array binding signal (z-score): -0.066
[5]
  glycan array binding signal (z-score): -0.148
[6]
  glycan array binding signal (z-score): -0.178
[7]
  glycan array binding signal (z-score): -0.182
[8]
  glycan array binding signal (z-score): -0.26
[9]
  glycan array binding signal (z-score): -0.082
[10]
  glycan array binding signal (z-score): -0.333
[11]
  glycan array binding signal (z-score): 0.034
[12]
  glycan array binding signal (z-score): 0.22
[13]
  glycan array binding signal (z-score): 0.184
[14]
  glycan array binding signal (z-score): 0.084
[15]
  glycan array binding signal (z-score): -0.375
Fuc(a1-4)GlcNAc
  glycan array binding signal (z-score): -0.016
Fuc(b1-3)GlcNAc
  glycan array binding signal (z-score): -0.211
Gal(a1-2)Gal
  glycan array binding signal (z-score): -0.106
Gal(a1-3)Gal
  glycan array binding signal (z-score): -0.219
Gal(a1-3)Gal(b1-3)GlcNAc
  glycan array binding signal (z-score): -0.065
Gal(a1-3)Gal(b1-4)Glc
  glycan array binding signal (z-score): -0.2
Gal(a1-3)Gal(b1-4)GlcNAc
  glycan array binding signal (z-score): -0.344
[16]
  glycan array binding signal (z-score): -0.101
Gal(a1-3)GalNAc
  glycan array binding signal (z-score): -0.163
[17]
  glycan array binding signal (z-score): -0.393
Gal(a1-4)Gal(b1-4)Glc
  glycan array binding signal (z-score): -0.289
Gal(a1-4)Gal(b1-4)GlcNAc
  glycan array binding signal (z-score): -0.297
Gal(a1-4)GlcNAc
  glycan array binding signal (z-score): -0.359
Gal(a1-6)Glc
  glycan array binding signal (z-score): -0.319
Gal(b1-2)Gal
  glycan array binding signal (z-score): -0.42
Gal(b1-3)Gal
  glycan array binding signal (z-score): -0.274
Gal(b1-3)Gal(b1-4)GlcNAc
  glycan array binding signal (z-score): -0.215
Gal(b1-3)GalNAc
  glycan array binding signal (z-score): -0.284
[18]
  glycan array binding signal (z-score): -0.054
[19]
  glycan array binding signal (z-score): -0.358
[20]
  glycan array binding signal (z-score): 0.035
